Assay results taken from the supplement of paper PMC8728848.
The list shows a part of the results.

Assays:
Test in all cases: glycan array binding signal (z-score within array); higher = stronger binding
Settings in all cases: glycan notation: IUPAC condensed, linker removed
[1] = biological target: Neu5Ac(a2-3)GalNAc(b1-4)GlcNAc
Procedure, shortened: (§1)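 The Consortium for Functional Glycomics database supplied 3228 glycan arrays, of which those lacking an available protein sequence were dropped. The binding signal, a within-array Z-score, was averaged across arrays of the same protein sequence and across linkers. Negative scores can be read as non-binding.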

[2] = biological target: Neu5Ac(a2-3)[GalNAc(b1-4)]Gal(b1-4)Glc
Procedure, shortened: as §1

[3] = biological target: Neu5Ac(a2-3)[GalNAc(b1-4)]Gal(b1-4)GlcNAc
Procedure, shortened: as §1

[4] = biological target: Neu5Ac(a2-3)[Neu5Ac(a2-6)]GalNAc
Procedure, shortened: as §1

[5] = biological target: Neu5Ac(a2-6)Gal(b1-4)GlcNAc
Procedure, shortened: as §1

[6] = biological target: Neu5Ac(a2-6)Gal(b1-4)GlcNAc(b1-2)Man(a1-3)[Neu5Ac(a2-6)Gal(b1-4)GlcNAc(b1-2)Man(a1-6)]Man(b1-4)GlcNAc(b1-4)GlcNAc
Procedure, shortened: as §1

[7] = biological target: Neu5Ac(a2-6)Gal(b1-4)GlcNAc(b1-3)Gal(b1-4)GlcNAc
Procedure, shortened: as §1

[8] = biological target: Neu5Ac(a2-6)Gal(b1-4)GlcNAc(b1-3)Gal(b1-4)[Fuc(a1-3)]GlcNAc(b1-3)Gal(b1-4)[Fuc(a1-3)]GlcNAc
Procedure, shortened: as §1

[9] = biological target: Neu5Ac(a2-6)Gal(b1-4)GlcNAc6S
Procedure, shortened: as §1

Neu5Ac(a2-6)GalNAc = biological target: Neu5Ac(a2-6)GalNAc
Procedure, shortened: as §1

[10] = biological target: Neu5Ac(a2-6)GalNAc(b1-4)GlcNAc
Procedure, shortened: as §1

Neu5Ac(a2-8)Neu5Ac = biological target: Neu5Ac(a2-8)Neu5Ac
Procedure, shortened: as §1

[11] = biological target: Neu5Ac(a2-8)Neu5Ac(a2-3)Gal(b1-4)Glc
Procedure, shortened: as §1

[12] = biological target: Neu5Ac(a2-8)Neu5Ac(a2-3)[GalNAc(b1-4)]Gal(b1-4)Glc
Procedure, shortened: as §1

[13] = biological target: Neu5Ac(a2-8)Neu5Ac(a2-8)Neu5Ac
Procedure, shortened: as §1

[14] = biological target: Neu5Ac(a2-8)Neu5Ac(a2-8)Neu5Ac(a2-3)Gal(b1-4)Glc
Procedure, shortened: as §1

[15] = biological target: Neu5Ac(a2-8)Neu5Ac(a2-8)Neu5Ac(a2-3)[GalNAc(b1-4)]Gal(b1-4)Glc
Procedure, shortened: as §1

[16] = biological target: Neu5Ac(a2-8)Neu5Ac(a2-8)Neu5Ac(a2-8)Neu5Ac(a2-3)[GalNAc(b1-4)]Gal(b1-4)Glc
Procedure, shortened: as §1

[17] = biological target: Neu5Ac9Ac(a2-6)Gal(b1-4)GlcNAc
Procedure, shortened: as §1

[18] = biological target: Neu5Gc(a2-3)Gal(b1-3)GlcNAc
Procedure, shortened: as §1

[19] = biological target: Neu5Gc(a2-3)Gal(b1-3)[Fuc(a1-4)]GlcNAc
Procedure, shortened: as §1

Neu5Gc(a2-3)Gal(b1-4)Glc = biological target: Neu5Gc(a2-3)Gal(b1-4)Glc
Procedure, shortened: as §1

[20] = biological target: Neu5Gc(a2-3)Gal(b1-4)GlcNAc
Procedure, shortened: as §1

[21] = biological target: Neu5Gc(a2-3)Gal(b1-4)[Fuc(a1-4)]GlcNAc
Procedure, shortened: as §1

[22] = biological target: Neu5Gc(a2-6)Gal(b1-4)GlcNAc
Procedure, shortened: as §1

Neu5Gc(a2-6)GalNAc = biological target: Neu5Gc(a2-6)GalNAc
Procedure, shortened: as §1

B1: TLEC1 (Arabidopsis thaliana), Q9C5Q9 (protein)
chain: MSGASSVSSICSSNVSLIPTGPQVFINFRGKDLRKGFMSFLKPALKKEKINVFIDEQEERGKYLISLFDTIGESKIALVIFSEGYCESHWCMDELVKIKEYMDQNRLIIIPIFYRLDLDVVKDLTGKFGDNFWDLVDKYQPEPKKLHKWTEALFSVCELFSLILPKHSDISDRDFVKSIVKAVKKVQKNFFQRRNGEIEYQDFSVPACKLTITMHESPNEEAVQVTVLNEFYQMKNQSPVPSYEFKFWVDLTRPKGNVFMIDARDLSIAWSEDSNHWTWLPLPNQNSNESVMEIAFLKSASWLDVAGKFDTRYLTPRTRYEVVFVVKLEYTFEWETLVKLKLDLPNTWEKPQEQSVDMFDYISDQWLDIPVGEFTTSKKNVGEISFAMYEHECQLWKSGLFVKGVTIRPKY
- glycan array binding signal (z-score) [1]: -0.437
- glycan array binding signal (z-score) [2]: -0.46
- glycan array binding signal (z-score) [3]: -0.487
- glycan array binding signal (z-score) [4]: -0.386
- glycan array binding signal (z-score) [5]: -0.295
- glycan array binding signal (z-score) [6]: -0.455
- glycan array binding signal (z-score) [7]: -0.244
- glycan array binding signal (z-score) [8]: -0.48
- glycan array binding signal (z-score) [9]: -0.322
- glycan array binding signal (z-score) (Neu5Ac(a2-6)GalNAc): -0.442
- glycan array binding signal (z-score) [10]: -0.493
- glycan array binding signal (z-score) (Neu5Ac(a2-8)Neu5Ac): -0.518
- glycan array binding signal (z-score) [11]: -0.438
- glycan array binding signal (z-score) [12]: -0.396
- glycan array binding signal (z-score) [13]: -0.485
- glycan array binding signal (z-score) [14]: -0.511
- glycan array binding signal (z-score) [15]: -0.444
- glycan array binding signal (z-score) [16]: -0.365
- glycan array binding signal (z-score) [17]: -0.272
- glycan array binding signal (z-score) [18]: -0.447
- glycan array binding signal (z-score) [19]: -0.473
- glycan array binding signal (z-score) (Neu5Gc(a2-3)Gal(b1-4)Glc): -0.391
- glycan array binding signal (z-score) [20]: -0.574
- glycan array binding signal (z-score) [21]: -0.219
- glycan array binding signal (z-score) [22]: -0.563
- glycan array binding signal (z-score) (Neu5Gc(a2-6)GalNAc): -0.514
